From article PMC7979705
Like-named read-outs stand apart in the source and are kept apart here. Results are given in words; binding and its absence hold for the method and conditions named. In cells and extracts the contact can be indirect. Some entries that bind do so weakly or less than the wild type. For part of these data: Where a sequence is shown, tags or fusion partners need not be part of it.

Amino acid sequences for entries named in this document (tags omitted). A change or cut given only in a name is not applied to a line headed by its entry. Residues count along the entry.
UniProt Q09472: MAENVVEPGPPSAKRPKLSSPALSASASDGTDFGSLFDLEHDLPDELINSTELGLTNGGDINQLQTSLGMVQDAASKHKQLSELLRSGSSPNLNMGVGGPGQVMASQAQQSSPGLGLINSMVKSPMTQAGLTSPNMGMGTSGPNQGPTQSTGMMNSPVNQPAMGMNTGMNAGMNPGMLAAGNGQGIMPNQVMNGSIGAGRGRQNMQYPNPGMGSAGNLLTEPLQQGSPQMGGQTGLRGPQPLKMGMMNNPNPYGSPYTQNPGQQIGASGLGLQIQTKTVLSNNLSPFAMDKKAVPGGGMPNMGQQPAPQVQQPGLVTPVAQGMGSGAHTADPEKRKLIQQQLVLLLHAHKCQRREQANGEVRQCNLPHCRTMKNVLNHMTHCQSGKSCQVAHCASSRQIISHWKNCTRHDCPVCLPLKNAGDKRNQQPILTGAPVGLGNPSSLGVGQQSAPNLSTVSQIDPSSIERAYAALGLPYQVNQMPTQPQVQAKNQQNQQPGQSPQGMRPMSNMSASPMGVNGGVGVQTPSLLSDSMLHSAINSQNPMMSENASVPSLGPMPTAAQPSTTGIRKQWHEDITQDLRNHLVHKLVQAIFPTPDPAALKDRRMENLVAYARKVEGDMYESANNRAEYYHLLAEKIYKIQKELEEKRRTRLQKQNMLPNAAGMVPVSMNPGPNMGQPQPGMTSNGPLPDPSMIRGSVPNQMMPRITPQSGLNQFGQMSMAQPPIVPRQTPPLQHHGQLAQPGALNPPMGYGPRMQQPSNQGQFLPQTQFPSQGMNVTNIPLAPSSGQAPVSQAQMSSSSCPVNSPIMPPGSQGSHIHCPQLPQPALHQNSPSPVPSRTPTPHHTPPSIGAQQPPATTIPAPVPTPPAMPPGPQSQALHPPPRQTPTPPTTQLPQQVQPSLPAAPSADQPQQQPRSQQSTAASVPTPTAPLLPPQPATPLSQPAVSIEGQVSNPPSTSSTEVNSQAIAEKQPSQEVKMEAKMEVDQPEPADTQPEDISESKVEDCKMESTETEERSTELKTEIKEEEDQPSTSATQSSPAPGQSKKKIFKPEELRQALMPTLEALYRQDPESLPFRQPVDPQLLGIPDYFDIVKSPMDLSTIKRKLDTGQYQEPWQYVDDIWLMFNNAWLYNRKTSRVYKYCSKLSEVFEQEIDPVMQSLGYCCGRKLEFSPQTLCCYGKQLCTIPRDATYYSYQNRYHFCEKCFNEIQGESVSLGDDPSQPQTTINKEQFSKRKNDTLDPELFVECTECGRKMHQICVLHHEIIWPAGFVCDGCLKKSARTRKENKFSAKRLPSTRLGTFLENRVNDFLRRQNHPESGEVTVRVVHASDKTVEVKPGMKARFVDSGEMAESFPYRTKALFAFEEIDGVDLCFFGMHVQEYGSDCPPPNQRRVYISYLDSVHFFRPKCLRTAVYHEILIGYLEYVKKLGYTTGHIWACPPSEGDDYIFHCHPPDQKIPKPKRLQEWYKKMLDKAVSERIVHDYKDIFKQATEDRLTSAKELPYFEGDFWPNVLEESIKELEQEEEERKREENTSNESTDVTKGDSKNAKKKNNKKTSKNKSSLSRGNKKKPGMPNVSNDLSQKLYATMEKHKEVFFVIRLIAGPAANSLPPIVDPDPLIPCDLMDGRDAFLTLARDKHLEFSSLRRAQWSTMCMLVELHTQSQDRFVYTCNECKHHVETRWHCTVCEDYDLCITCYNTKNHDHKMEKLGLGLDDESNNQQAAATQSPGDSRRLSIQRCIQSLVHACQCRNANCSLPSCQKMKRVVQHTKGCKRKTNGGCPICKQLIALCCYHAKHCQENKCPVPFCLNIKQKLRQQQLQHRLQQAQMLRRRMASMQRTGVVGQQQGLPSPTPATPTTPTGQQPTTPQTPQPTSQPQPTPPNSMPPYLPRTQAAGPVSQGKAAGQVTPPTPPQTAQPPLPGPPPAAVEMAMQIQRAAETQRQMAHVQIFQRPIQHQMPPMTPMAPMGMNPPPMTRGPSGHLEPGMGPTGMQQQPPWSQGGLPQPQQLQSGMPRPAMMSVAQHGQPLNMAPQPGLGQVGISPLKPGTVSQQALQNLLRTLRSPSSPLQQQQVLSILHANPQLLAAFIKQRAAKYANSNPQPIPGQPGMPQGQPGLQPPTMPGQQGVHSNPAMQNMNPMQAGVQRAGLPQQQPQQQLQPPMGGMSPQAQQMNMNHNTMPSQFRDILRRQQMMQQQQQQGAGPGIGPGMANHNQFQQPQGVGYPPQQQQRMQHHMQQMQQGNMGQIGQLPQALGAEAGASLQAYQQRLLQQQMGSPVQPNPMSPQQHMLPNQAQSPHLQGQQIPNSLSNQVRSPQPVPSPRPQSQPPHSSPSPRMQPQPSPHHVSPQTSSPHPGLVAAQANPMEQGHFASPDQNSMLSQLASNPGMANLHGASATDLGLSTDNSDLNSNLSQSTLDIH
UniProt Q96EB6: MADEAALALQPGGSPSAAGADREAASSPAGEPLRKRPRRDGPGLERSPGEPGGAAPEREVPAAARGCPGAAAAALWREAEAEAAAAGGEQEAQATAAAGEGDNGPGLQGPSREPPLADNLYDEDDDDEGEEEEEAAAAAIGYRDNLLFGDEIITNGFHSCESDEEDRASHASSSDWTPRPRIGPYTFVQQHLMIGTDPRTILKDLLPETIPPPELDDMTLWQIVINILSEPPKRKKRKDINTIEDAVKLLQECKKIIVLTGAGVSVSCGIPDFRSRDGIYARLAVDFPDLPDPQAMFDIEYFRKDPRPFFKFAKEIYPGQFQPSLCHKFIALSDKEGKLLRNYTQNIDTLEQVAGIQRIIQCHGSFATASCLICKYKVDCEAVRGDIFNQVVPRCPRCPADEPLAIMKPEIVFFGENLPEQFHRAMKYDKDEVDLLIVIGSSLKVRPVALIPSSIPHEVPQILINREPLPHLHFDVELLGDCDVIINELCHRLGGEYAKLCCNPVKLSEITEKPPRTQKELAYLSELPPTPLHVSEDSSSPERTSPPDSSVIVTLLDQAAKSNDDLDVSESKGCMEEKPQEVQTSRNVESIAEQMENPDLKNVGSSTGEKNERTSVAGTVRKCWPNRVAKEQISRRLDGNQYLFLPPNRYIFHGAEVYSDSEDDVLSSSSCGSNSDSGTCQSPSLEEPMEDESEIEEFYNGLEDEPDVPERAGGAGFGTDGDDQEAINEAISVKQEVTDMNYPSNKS
UniProt Q9NXA8, residues 37-310: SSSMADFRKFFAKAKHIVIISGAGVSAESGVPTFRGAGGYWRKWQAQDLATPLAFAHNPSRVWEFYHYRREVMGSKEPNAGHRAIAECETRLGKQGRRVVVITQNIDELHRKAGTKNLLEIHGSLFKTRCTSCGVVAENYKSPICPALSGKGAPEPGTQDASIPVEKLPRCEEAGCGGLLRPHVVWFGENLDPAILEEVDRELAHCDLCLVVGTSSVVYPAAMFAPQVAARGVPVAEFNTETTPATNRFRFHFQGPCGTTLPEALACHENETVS
UniProt Q8N6T7: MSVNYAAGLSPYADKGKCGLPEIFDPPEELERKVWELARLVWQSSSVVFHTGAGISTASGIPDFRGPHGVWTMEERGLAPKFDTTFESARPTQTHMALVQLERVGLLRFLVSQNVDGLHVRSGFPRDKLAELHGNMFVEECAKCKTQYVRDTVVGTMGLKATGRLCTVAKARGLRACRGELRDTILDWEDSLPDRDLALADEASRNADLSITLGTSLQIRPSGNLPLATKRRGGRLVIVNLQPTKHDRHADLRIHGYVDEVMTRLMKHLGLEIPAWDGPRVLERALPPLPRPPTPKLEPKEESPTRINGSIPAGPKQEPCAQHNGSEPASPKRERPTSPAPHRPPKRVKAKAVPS
UniProt Q9NRC8: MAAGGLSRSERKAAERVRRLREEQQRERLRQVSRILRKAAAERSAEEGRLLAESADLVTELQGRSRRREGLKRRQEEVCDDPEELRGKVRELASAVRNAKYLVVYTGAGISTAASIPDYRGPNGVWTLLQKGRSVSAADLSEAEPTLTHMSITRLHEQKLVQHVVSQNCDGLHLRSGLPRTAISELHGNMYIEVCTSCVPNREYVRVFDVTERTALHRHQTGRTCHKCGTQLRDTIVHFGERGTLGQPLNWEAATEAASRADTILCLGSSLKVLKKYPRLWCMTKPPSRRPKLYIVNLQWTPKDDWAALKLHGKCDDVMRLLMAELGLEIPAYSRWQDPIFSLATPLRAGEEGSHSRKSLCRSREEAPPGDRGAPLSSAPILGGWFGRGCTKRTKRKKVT
UniProt P40763: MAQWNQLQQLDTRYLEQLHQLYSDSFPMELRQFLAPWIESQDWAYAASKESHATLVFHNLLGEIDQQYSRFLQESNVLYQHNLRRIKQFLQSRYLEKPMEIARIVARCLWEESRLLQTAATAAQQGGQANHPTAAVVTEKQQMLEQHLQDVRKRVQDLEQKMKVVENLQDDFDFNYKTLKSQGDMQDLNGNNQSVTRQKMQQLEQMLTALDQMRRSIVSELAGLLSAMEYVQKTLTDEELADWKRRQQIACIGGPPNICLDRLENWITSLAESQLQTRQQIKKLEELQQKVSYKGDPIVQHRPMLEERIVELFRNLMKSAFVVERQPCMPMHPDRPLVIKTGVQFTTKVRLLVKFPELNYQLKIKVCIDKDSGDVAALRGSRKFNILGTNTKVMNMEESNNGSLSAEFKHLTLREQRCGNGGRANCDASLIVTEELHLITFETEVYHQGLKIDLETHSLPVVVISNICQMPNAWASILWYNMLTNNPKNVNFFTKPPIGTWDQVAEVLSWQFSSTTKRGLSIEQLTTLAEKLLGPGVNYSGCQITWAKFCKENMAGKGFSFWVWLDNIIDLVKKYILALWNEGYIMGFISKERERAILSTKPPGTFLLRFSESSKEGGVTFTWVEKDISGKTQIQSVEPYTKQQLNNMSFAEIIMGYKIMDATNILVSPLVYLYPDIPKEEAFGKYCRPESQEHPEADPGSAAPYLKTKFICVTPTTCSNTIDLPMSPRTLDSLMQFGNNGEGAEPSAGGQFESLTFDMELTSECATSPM
UniProt P35222: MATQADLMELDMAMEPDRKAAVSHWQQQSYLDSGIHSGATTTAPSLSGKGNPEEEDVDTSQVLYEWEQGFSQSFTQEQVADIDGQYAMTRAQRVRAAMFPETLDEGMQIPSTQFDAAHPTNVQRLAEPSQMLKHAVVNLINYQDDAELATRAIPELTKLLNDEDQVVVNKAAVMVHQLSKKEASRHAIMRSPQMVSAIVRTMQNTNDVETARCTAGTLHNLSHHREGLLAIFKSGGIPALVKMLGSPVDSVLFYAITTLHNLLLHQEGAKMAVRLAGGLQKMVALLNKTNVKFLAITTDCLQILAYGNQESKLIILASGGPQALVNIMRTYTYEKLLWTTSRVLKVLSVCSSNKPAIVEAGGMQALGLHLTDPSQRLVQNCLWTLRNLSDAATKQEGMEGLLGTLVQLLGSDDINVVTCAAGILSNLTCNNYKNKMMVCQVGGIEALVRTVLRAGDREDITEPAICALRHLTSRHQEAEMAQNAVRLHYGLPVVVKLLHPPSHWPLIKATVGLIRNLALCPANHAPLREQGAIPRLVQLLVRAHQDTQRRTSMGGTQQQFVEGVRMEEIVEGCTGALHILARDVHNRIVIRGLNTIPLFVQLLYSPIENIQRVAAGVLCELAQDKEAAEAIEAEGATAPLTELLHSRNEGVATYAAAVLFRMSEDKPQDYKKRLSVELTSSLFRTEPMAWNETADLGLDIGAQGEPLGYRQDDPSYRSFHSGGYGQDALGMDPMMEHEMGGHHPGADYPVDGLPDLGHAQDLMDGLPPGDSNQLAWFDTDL

Columns and labels:
[1] = biological target: T1, Flag-Myc-ELF5 (isoform 2) (UniProt Q9UKW6); assay: co-IP; HEK293T co-transfected with tagged ELF5 and tagged sirtuins; precipitation with anti-Flag affinity gel; immunoblot
T1 sequence: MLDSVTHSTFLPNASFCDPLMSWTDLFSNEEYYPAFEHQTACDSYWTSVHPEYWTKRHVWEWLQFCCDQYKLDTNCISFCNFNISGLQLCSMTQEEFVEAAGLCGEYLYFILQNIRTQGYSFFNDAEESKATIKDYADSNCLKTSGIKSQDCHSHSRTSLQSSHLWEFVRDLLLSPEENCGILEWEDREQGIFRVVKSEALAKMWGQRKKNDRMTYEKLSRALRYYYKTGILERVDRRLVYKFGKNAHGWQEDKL

GST-ELF5 fusion protein = biological target: T2, GST-ELF5 fusion protein (UniProt Q9UKW6); assay: pull-down; purified GST or GST-ELF5 immobilised on the Pierce Spin Column, incubated with lysate of HEK293T cells overexpressing p300 or SIRT6; only the target purified
T2 sequence: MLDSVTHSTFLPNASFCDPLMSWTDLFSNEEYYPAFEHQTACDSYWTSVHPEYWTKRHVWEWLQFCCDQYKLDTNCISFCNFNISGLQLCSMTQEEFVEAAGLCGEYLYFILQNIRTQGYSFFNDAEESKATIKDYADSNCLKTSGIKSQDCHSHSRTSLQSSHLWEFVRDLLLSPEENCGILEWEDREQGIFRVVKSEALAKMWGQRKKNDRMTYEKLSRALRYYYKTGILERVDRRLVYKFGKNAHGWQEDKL

GFP-tagged ELF5 = biological target: T3, GFP-tagged ELF5 (UniProt Q9UKW6); assay: co-IP; HEK293T co-transfected with GFP-tagged ELF5 and HA-tagged p300; precipitation with anti-GFP or anti-HA antibody; immunoblot
T3 sequence: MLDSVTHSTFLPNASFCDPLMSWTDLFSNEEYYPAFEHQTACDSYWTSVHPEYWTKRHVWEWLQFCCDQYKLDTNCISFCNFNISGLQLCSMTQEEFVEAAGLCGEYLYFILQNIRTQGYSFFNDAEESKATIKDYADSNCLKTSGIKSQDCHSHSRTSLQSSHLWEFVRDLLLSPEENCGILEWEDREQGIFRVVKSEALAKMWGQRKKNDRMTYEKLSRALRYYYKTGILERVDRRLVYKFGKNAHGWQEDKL

[2] = biological target: T4, E74-like ETS transcription factor 5 (ELF5), endogenous (human (endogenous in T47D and MCF7)) (UniProt Q9UKW6); assay: co-IP; endogenous proteins, T47D whole-cell lysate in TNE lysis buffer; antibody (anti-p300, anti-ELF5 or anti-SIRT6) or normal IgG overnight at 4 °C, Protein A/G magnetic beads; immunoblot
T4 sequence: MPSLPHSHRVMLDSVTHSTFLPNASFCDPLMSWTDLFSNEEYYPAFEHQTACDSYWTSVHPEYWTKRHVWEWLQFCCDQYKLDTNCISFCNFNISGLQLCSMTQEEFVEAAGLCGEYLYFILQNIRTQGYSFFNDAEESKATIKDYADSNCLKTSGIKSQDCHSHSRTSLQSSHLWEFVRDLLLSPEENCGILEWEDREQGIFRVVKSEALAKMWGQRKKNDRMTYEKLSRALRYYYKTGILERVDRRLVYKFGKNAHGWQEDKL

[3] = biological target: p300 (endogenous) (human (endogenous in T47D and MCF7)) (UniProt Q09472); assay: as above
Flag-SIRT1 = Flag-SIRT1 (UniProt Q96EB6); assay: co-IP; HEK293T co-transfected with tagged ELF5 and tagged sirtuins; precipitation with anti-Flag affinity gel; immunoblot
Flag-SIRT2 = biological target: T5, Flag-SIRT2 (UniProt Q8IXJ6); assay: as above
T5 sequence: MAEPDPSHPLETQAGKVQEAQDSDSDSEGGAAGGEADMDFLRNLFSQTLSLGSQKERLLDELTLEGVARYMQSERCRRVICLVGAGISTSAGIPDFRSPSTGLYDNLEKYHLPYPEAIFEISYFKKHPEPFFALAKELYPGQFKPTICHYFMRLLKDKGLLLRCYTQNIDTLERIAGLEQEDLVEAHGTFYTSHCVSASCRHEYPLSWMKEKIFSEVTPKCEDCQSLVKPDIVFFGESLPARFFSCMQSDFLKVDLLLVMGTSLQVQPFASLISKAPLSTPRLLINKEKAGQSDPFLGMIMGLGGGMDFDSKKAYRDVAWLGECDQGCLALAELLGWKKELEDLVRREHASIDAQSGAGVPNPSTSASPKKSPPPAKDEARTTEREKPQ

Flag-SIRT4 = biological target: T6, Flag-SIRT4 (UniProt Q9Y6E7); assay: as above
T6 sequence: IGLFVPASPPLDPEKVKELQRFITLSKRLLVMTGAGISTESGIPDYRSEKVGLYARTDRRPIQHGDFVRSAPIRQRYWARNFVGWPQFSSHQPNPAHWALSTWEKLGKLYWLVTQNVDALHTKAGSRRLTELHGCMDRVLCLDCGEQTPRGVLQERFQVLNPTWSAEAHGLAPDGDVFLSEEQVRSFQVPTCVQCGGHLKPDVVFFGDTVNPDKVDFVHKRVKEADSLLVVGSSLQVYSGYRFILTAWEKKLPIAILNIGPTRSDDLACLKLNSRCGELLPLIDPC

Flag-SIRT5 = Flag-SIRT5 (UniProt Q9NXA8); assay: as above
Flag-SIRT6 = Flag-SIRT6 (UniProt Q8N6T7); assay: as above
Flag-SIRT7 = Flag-SIRT7 (UniProt Q9NRC8); assay: as above
[4] = biological target: SIRT6 (endogenous) (human (endogenous in T47D)) (UniProt Q8N6T7); assay: co-IP; endogenous proteins, T47D whole-cell lysate in TNE lysis buffer; antibody (anti-p300, anti-ELF5 or anti-SIRT6) or normal IgG overnight at 4 °C, Protein A/G magnetic beads; immunoblot
[5] = biological target: p300 (endogenous) (human (endogenous in T47D and MCF7)) (UniProt Q09472); assay: as above; remark: listed apart in the source
HA-tagged p300 = HA-tagged p300 (UniProt Q09472); assay: co-IP; HEK293T co-transfected with GFP-tagged ELF5 and HA-tagged p300; precipitation with anti-GFP or anti-HA antibody; immunoblot

GFP-SIRT6 (from UniProt Q8N6T7 1-355) (enzyme)
binding [1]: binds | binding (GST-ELF5 fusion protein): binds

GFP-SIRT6 catalytic mutant H133Y (from UniProt Q8N6T7 1-355) (enzyme)
binding [1]: no binding

HA-tagged p300 (from UniProt Q09472 1-2414) (enzyme)
binding (GFP-tagged ELF5): binds | binding (GST-ELF5 fusion protein): binds

SIRT6 (endogenous) (from UniProt Q8N6T7 1-355) (enzyme)
binding [2]: binds

STAT3 (endogenous) (from UniProt P40763 1-770)
binding [3]: binds

p300 (endogenous) (from UniProt Q09472 1-2414) (enzyme)
binding [2]: binds

β-catenin (endogenous) (from UniProt P35222 1-781)
binding [3]: binds

B1: HA-tagged ELF5 (protein, UniProt Q9UKW6-2 1-255)
chain: MLDSVTHSTFLPNASFCDPLMSWTDLFSNEEYYPAFEHQTACDSYWTSVHPEYWTKRHVWEWLQFCCDQYKLDTNCISFCNFNISGLQLCSMTQEEFVEAAGLCGEYLYFILQNIRTQGYSFFNDAEESKATIKDYADSNCLKTSGIKSQDCHSHSRTSLQSSHLWEFVRDLLLSPEENCGILEWEDREQGIFRVVKSEALAKMWGQRKKNDRMTYEKLSRALRYYYKTGILERVDRRLVYKFGKNAHGWQEDKL
binding (Flag-SIRT1): no binding | binding (Flag-SIRT2): no binding | binding (Flag-SIRT4): no binding | binding (Flag-SIRT5): no binding | binding (Flag-SIRT6): binds | binding (Flag-SIRT7): no binding

B2: E74-like ETS transcription factor 5 (ELF5), endogenous (protein, UniProt Q9UKW6 1-265)
chain: MPSLPHSHRVMLDSVTHSTFLPNASFCDPLMSWTDLFSNEEYYPAFEHQTACDSYWTSVHPEYWTKRHVWEWLQFCCDQYKLDTNCISFCNFNISGLQLCSMTQEEFVEAAGLCGEYLYFILQNIRTQGYSFFNDAEESKATIKDYADSNCLKTSGIKSQDCHSHSRTSLQSSHLWEFVRDLLLSPEENCGILEWEDREQGIFRVVKSEALAKMWGQRKKNDRMTYEKLSRALRYYYKTGILERVDRRLVYKFGKNAHGWQEDKL
binding [4]: binds | binding [5]: binds

B3: GFP-tagged ELF5 (protein, UniProt Q9UKW6-2 1-255)
chain: MLDSVTHSTFLPNASFCDPLMSWTDLFSNEEYYPAFEHQTACDSYWTSVHPEYWTKRHVWEWLQFCCDQYKLDTNCISFCNFNISGLQLCSMTQEEFVEAAGLCGEYLYFILQNIRTQGYSFFNDAEESKATIKDYADSNCLKTSGIKSQDCHSHSRTSLQSSHLWEFVRDLLLSPEENCGILEWEDREQGIFRVVKSEALAKMWGQRKKNDRMTYEKLSRALRYYYKTGILERVDRRLVYKFGKNAHGWQEDKL
binding (HA-tagged p300): binds
